# PubChem BioAssay AID485297 (National Center for Advancing Translational Sciences (NCATS), 2010)
# Values joined by “and” are separate entries in the source; they are usually repeats but may differ in a detail not shown here. Identical values can stand only once. Screen size: about 320,000 compounds; about 9,100 (2.8%) were called active. Inconclusive results, whose numbers are uncertain, are shown with a selection of clear calls. Calls follow the shape of the dose curve; as a rule, active = well fitted activation curve with a large enough effect; inconclusive = small, poorly fitted or top-dose-only effect; inactive = no such curve, though single readings can be large or run the other way. Where the call is inconclusive, the potency comes from a doubtful curve fit.
# Assay: qHTS Assay for Rab9 Promoter Activators; also: nearly all actives have a fitted effect of over 60% in size
# Settings: Huh7 Rab9 promoter-luciferase reporter, luminescence, 24 h; series mostly up to 9.22 µM
# How it was run: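 Cell-based reporter: Huh7 stable for Rab9 promoter-driven luciferase, plated in reduced-serum medium with 10% FBS at 1500 cells/well, compound-treated 24 h at 37 °C, luminescence read after 10 min reagent.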
# Potency is read from the fitted curve at half-maximal effect; tags tell the direction and shape of the fitted curve.
row,Compound,Potency
1,Cc1cc(-c2ccc(Br)cc2)n[nH]1,"inconclusive: 3.98 µM [activator, single point]"
2,Cc1ccc2nc(N(CCN3CCOCC3)C(=O)CCS(=O)(=O)c3ccccc3)sc2c1,"inconclusive: 3.98 µM [activator, single point]"
3,COC(=O)c1cccc(COC(=O)c2cccnc2SC)c1,"inconclusive: 3.98 µM [activator, single point]"
4,Cc1nc(-c2ccccc2)sc1C(=O)/C=C/c1ccccc1,"inconclusive: 6.31 µM [activator, single point]"
5,CCOc1ccc(NC(=NCc2ccc3c(c2)OCO3)SC2CC(=O)N(c3ccc(OCC)cc3)C2=O)cc1 (centres undefined),"inconclusive: 3.55 µM [activator, single point]"
6,CCCCCn1nc(C)c(/C=N/NC(=O)c2ccoc2C)c1C,"inconclusive: 3.55 µM [activator, partial curve]"
7,CN(C)c1ccc(N=Nc2ccc(S(N)(=O)=O)cc2)cc1,active: 2.82 µM
8,CCC(=O)Nc1cccc(-c2nc3ccc(C)cc3o2)c1,active: 4.47 µM
9,COCCn1c(=O)[nH]c2cc(C(=O)Nc3nnc(C)s3)ccc21,"inconclusive: 5.62 µM [activator, single point]"
10,COCCCNC(=O)c1ccc2c3c(onc13)-c1ccccc1C2=O,active: 0.708 µM
11,NC(=O)/C(=C\c1ccccc1)NC(=O)c1ccc(NC(=O)c2ccccc2)cc1,inactive
12,Cc1ccc(-c2nn(-c3ccccc3)cc2CO)cc1,"inconclusive: 2.51 µM [activator, partial curve]"
13,CCc1nnc(SCC(=O)Nc2ccc(N3CCOCC3)cc2)n1C,inactive
14,CCOC(=O)c1nn(-c2ccc(Br)cc2)cc1C(=O)c1cccc2ccccc12,"inconclusive: 3.55 µM [activator, partial curve]"
15,CN(C)S(=O)(=O)c1ccc2c(c1)/C(=C/c1cc3c([nH]1)CCCC3)C(=O)N2,"inconclusive: 3.98 µM [activator, partial curve] and inconclusive: 2.82 µM [activator, full curve, poor fit]"
16,COc1cccc(CC(=O)Nc2ccc(-c3csc(C)n3)cc2)c1,inactive
17,Cc1ccc(/C(N)=N/OC(=O)Cc2cccs2)cc1,"inconclusive: 3.55 µM [activator, partial curve]"
18,Cc1ccc(NC(=O)CN2C(=O)NC(Cc3ccccc3)C2=O)cc1Cl (centres undefined),inactive
19,CN(C)S(=O)(=O)c1ccc(C(=O)NCCOc2ccc(F)cc2)cc1,"inconclusive: 3.55 µM [activator, single point]"
20,O=C(Nc1nc2ccccc2s1)c1c(F)cccc1Cl,"inconclusive: 5.01 µM [activator, single point]"
21,CCC(Sc1nc(N)cc(N)n1)C(=O)O (centres undefined),inactive
22,CS(=O)(=O)Nc1ccc(-c2cc(/C=C3\SC(N)=NC3=O)c[nH]c2=O)cc1,inactive
23,COCCN1Cc2cccc(C(=O)Nc3cccc(OC)c3)c2C1=O,inactive
24,Cc1ccc2c(c1)COc1c3ccc(C(=O)NC(C)C)cc3nn1-2,"inconclusive: 1 µM [activator, full curve]"
25,O=C(Nc1ccc(Cc2ccncc2)cc1)c1ccco1,"inconclusive: 2.51 µM [activator, partial curve]"

row,Compound,Potency
1,O=C(NCCC1CCCC1)c1cccs1,"inconclusive: 3.98 µM [activator, partial curve]"
2,Cc1nnc(SCc2ccc(F)cc2Cl)s1,"inconclusive: 3.55 µM [activator, partial curve]"
3,COCCCN=Cc1c(C)[nH]n(-c2ccc(Br)c(C)c2)c1=O,active: 0.501 µM
4,COc1ccc(/C=C/c2nc3ccccc3c(=O)o2)cc1,active: 0.0891 µM
5,Brc1ccc2nc(CSc3ncn[nH]3)cn2c1,"inconclusive: 5.62 µM [activator, single point]"
6,C=C(C)CNC(=S)Nc1nc2c(cc1C(=O)OCC)CCCC2,"inconclusive: 5.62 µM [activator, single point]"
7,CC(C)(C)c1ccc(C(=O)NC2CCS(=O)(=O)C2)cc1 (centres undefined),inactive
8,Clc1ccc(/C=N/Nc2nnc(Cl)c3ccccc23)cc1,"inconclusive: 3.55 µM [activator, single point]"
9,COc1cc2ccccc2cc1C(=O)Nc1nccs1,"inconclusive: 6.31 µM [activator, single point]"
10,O=C(/C=C/c1c[nH]c2ccccc12)c1ccccc1,active: 3.55 µM
11,O=C(Nc1cnc2sccn2c1=O)c1ccc(Cl)cc1Cl,active: 1 µM
12,CC1CN(C2=CC(=O)CCC2)CC(C)O1 (centres undefined),inactive
13,C/C(=N\NC(=O)c1csc(C)c1C)c1ccc(Cl)s1,"inconclusive: 3.98 µM [activator, single point]"
14,COc1ccc(CN(CC(=O)NCc2ccc(F)cc2)C(=O)c2csnn2)cc1,inactive
15,CCS(=O)(=O)Nc1cccc(-c2nc3cccnc3s2)c1,"inconclusive: 2.51 µM [activator, partial curve]"
16,O=C1NC(c2ccc(Br)cc2)Nc2sc3c(c21)CCC3 (centres undefined),"inconclusive: 3.55 µM [activator, single point]"
17,COc1cccc([C@@H]2Oc3ccc(OC)cc3C(=O)[C@H]2OC(=O)NCc2ccc3c(c2)OCO3)c1,"inconclusive: 3.16 µM [activator, partial curve]"
18,Cn1c(N)c(C(=O)/C=C/c2ccccc2)c(=O)[nH]c1=O,"inconclusive: 2.24 µM [activator, partial curve]"
19,CC1(/[N+]([O-])=C/c2ccc(F)cc2)CCCCC1=O (centres undefined),inactive
20,COc1ccccc1NC(=S)NCc1ccc(Cl)cc1,"inconclusive: 0.562 µM [activator, full curve]"
21,O=C(NCCCc1ccccc1)c1ccccc1,"inconclusive: 2.24 µM [activator, partial curve]"
22,COc1ccccc1NC(=O)CN(c1ccccc1)S(=O)(=O)c1ccccc1,inactive
23,CCOc1ccc(C(=O)/C=C/c2cn(CN3CCN(C)CC3)c3ccccc23)cc1,inactive
24,CN(NC1CC(=O)N(c2ccccc2)C1=O)c1ccccc1 (centres undefined),inactive
